From PubChem BioAssay AID330 (DTP/NCI, 2004)
Several values for one entry are separate records, joined by “and”; a condition that tells them apart may be missing. Equal values may be shown once. This continues a long series; more values of the same kind are listed elsewhere. Toxic doses and inconclusive results are not listed. Rule for the calls: active = survival T/C of 150% or more; inactive = T/C below 125% in these data.

Test system: P388 leukemia ip, CD2F1 mice, survival T/C
Assay: NCI In Vivo Anticancer Drug Screen. Data for tumor model P388 Leukemia (intraperitoneal) in CD2F1 (CDF1) mice
Details: endpoint: median survival time, schedule: Q04DX003 (ip), vehicle: water, higher = longer survival
Procedure: The antitumor activity of compounds was measured in mice bearing transplantable tumors. Survival or tumor size were measured and the results are expressed as the measurement made in the treated group (T) divided by the measurement made in the vehicle treated control group (C). The tumor model used in this assay is P388 Leukemia (intraperitoneal) in CD2F1 (CDF1) mice

Measured: T/C

COc1cccc2c1C(=O)c1c(O)c3c(c(O)c1C2=O)CC(O)(C(C)=O)CC3OC1CC(N)C(O)C(C)O1 (stereo not drawn)
inactive: dose: 0.38 mg/kg/injection 118 % of control | dose: 0.75 mg/kg/injection 118 % of control and 123 % of control | dose: 1.5 mg/kg/injection 121 % of control and 117 % of control and 120 % of control | dose: 3.13 mg/kg/injection 91 % of control and 111 % of control and 108 % of control | dose: 6.0 mg/kg/injection 118 % of control | dose: 6.25 mg/kg/injection 110 % of control and 124 % of control and 112 % of control | dose: 12.0 mg/kg/injection 88 % of control and 118 % of control | dose: 12.5 mg/kg/injection 110 % of control and 120 % of control and 112 % of control | dose: 24.0 mg/kg/injection 90 % of control | dose: 25.0 mg/kg/injection 115 % of control and 110 % of control | dose: 50.0 mg/kg/injection 110 % of control and 102 % of control | dose: 350.0 mg/kg/injection 94 % of control
active: dose: 175.0 mg/kg/injection 163 % of control
